One assay deals with Phytophthora infestans. The assay is classed as cell-based. Particulars: growth at 405 nm 7 days after inoculation.
The subject of assay [1] is southern green stink bug (Nezara viridula). Nature of the assay: Test 5: control of southern green stink bug, dipped green beans and bugs. The conditions noted are these: 4th instar, recorded after 5 days.
The test system of assay [2] is Mediterranean fruitfly (Ceratitis capitata).
The test system of assay [3] is yellow fever mosquito (Aedes aegypti). Particulars: larval mortality after 2 days.
In assay [4] the test system is tobacco budworm (Heliothis virescens). Particulars: 0.08 ppm.

The values that follow come from patent US10334859B2, “Method and pesticidal mixtures for controlling Pentatomidae pests” (BASF SE, priority 2014, dated 2019).

Read-outs that look alike come from different tables or passages of the source.

In the case of `COC(=O)Nc1nc2ccccc2[nH]1` [Carbendazim, carbendazim], the Observed efficacy in the assay with Phytophthora infestans (0.004 ppm) came out at 0%.

With `C[C@@H]1C(=O)O[C@H]2C[C@@]34[C@H]5C[C@@H](C(C)(C)C)[C@]36[C@@H](OC(=O)[C@@H]6O)O[C@@]4(C(=O)O5)[C@]21O` [Ginkgolide A], the Observed efficacy was found to be 38% in the assay with Phytophthora infestans (63 ppm) and 58% in assay [1] (5 ppm). In turn, spinosad yielded an Observed efficacy in assay [1] (10 ppm) of 17%. As for `CCCN(CCOc1c(Cl)cc(Cl)cc1Cl)C(=O)n1ccnc1` [Prochloraz, prochloraz], the Observed efficacy in the assay with Phytophthora infestans (0.016 ppm) turned out to be 3%. In the case of thiamethoxam, the Observed efficacy in assay [2] (0.08 ppm) was 0%; in assay [3] (0.8 ppm) it was 50%. As for `CC1(C)C(C=C(Cl)Cl)C1C(=O)OC(C#N)c1cccc(Oc2ccccc2)c1` (stereo not drawn) [Alphacypermethrin, alpha-cypermethrin], the Observed efficacy in assay [2] (0.4 ppm) and in assay [4] was 0% throughout. As for mancozeb, the Observed efficacy in the assay with Phytophthora infestans (0.004 ppm) was found to be 0%; in the assay with Phytophthora infestans (0.016 ppm) it was 15%; in the assay with Phytophthora infestans (0.063 ppm), 39%; with Phytophthora infestans (1 ppm) it was 20%. On to `CC(C)NC(=O)N1CC(=O)N(c2cc(Cl)cc(Cl)c2)C1=O` [Iprodion, iprodione], for which the Observed efficacy in the assay with Phytophthora infestans (0.004 ppm) amounted to 0%. In assay [3] (160 ppm), `CC(C)(C)[C@]1(O)C[C@@H]2OC(=O)C[C@@]23C(=O)O[C@@H]2OC(=O)[C@H](O)[C@]213` [Bilobalide, (3aS,5aR,8aS,9R,10aR)-9-tert-butyl-8,9-dihydroxydihydro-9H-furo[2,3-b]furo[3′,2′;2,3]cyclopenta[1,2-c]furan-2,4,7(3H,8H)-trione] gave an Observed efficacy of 0%.
